Laboratory results taken from the supplement of paper PMC10126150.
Values marked as one replicate rest on one cluster of the flow cell; about a third of the high ones do not repeat.
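Further: ATP exposure 15 min at 22 °C before imaging.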

Each sequence was assayed on ATP (assay: switch fluorescence ratio, 500 uM ATP over buffer (Cy3 cluster intensity, sum of 5 cycles each) (fold (ratio)); higher = stronger signal-on switching upon ATP binding; sequences stand for … in TCGTCGGCAGCGTCAGATGTGTATAAGAGACAGTTTTTTTTTTTTTTTTTTTTTTTTT…TC). Conditions: aptamer strand: ATP DNA aptamer (quencher-CACCTGGGGGAGTATTGCGGAGGAAGG + anchor), 100 nM annealed; ATP concentration: 500 uM; one replicate.
Procedure, shortened: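 The quencher-labelled ATP aptamer, at 100 nM, was annealed to Cy3-labelled switching-strand clusters on a modified Illumina MiSeq flow-cell. The clusters were imaged in selection buffer, then after 15 min with 500 uM ATP at 22 °C, and this buffer/ATP cycle ran five times with NaOH stripping and re-annealing between runs. Per-cluster fluorescence ratios, summed target-cycle over summed buffer-cycle Cy3 intensity, were averaged per switch-domain sequence. Clusters outside 100-1000 RFU were excluded.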
For AGTTTGCTGA, the switch fluorescence ratio was 0.998.
Sequence GGGGTTACTC has a switch fluorescence ratio of 0.978.
For TAAAAAATTA, the switch fluorescence ratio was 0.955.
Work on GCAAAACGAC yielded a switch fluorescence ratio of 2.8.
For CAACGTGGGA, the switch fluorescence ratio was 1.07.
With TCGTCACGCT the switch fluorescence ratio was 1.02.
With TCTTCAGTGT the switch fluorescence ratio was 1.02.
CTGATTAACG showed a switch fluorescence ratio of 0.995.
In the case of CGGACTTGAT, the switch fluorescence ratio is reported as 0.988.
For CCGGCGATAG, the switch fluorescence ratio was 4.25.
TCGAATGTG gave a switch fluorescence ratio of 0.922.
TTATACCGCC was tested, and the switch fluorescence ratio was 1.01.
ACGTAGACTA gave a switch fluorescence ratio of 1.12.
CGTGGTTTCA showed a switch fluorescence ratio of 0.974.
Work on TTTCCGTCCT yielded a switch fluorescence ratio of 1.07.
AGCACGTGGA was tested, and the switch fluorescence ratio was 1.05.
In the case of TGACTGGT, the switch fluorescence ratio is reported as 0.986.
Sequence TGCGTATACG has a switch fluorescence ratio of 0.953.
With GGACGGTCGC the switch fluorescence ratio was 0.997.
CGTGAATCGA showed a switch fluorescence ratio of 1.03.
For TGTAAGATGT, the switch fluorescence ratio was 1.04.
With CGGACGGGG the switch fluorescence ratio was 1.
Work on GCGGTGGGGC yielded a switch fluorescence ratio of 0.984.
For GTTATCACGG, the switch fluorescence ratio was 0.997.
Work on CATGTTGAGA yielded a switch fluorescence ratio of 0.977.
For ACGATGTGG, the switch fluorescence ratio was 0.998.
Sequence TAAGGATGAG has a switch fluorescence ratio of 0.971.
Sequence CGATTCCCGC has a switch fluorescence ratio of 1.26.
Sequence GCCGAGGTAC has a switch fluorescence ratio of 1.18.
Sequence CTAGGGATTA has a switch fluorescence ratio of 1.
With TGGCCGGGA the switch fluorescence ratio was 1.01.
For ACCTTAACTA, the switch fluorescence ratio was 1.08.
Sequence TGTGGAGAAA has a switch fluorescence ratio of 1.05.
ATAGGCCTTT gave a switch fluorescence ratio of 0.986.
In the case of GGAGATGAGG, the switch fluorescence ratio is reported as 1.01.
CCAGTAGCCG was tested, and the switch fluorescence ratio was 1.23.
TGGGTACTAT showed a switch fluorescence ratio of 1.03.
Work on GATAGAGGAG yielded a switch fluorescence ratio of 0.967.
For TTTCGGTACC, the switch fluorescence ratio was 0.973.
TGCACTTTCT gave a switch fluorescence ratio of 0.977.
CTGCTTTGAA was tested, and the switch fluorescence ratio was 1.03.
GCGTAACCGG was tested, and the switch fluorescence ratio was 1.01.
CGGCGAGATC was tested, and the switch fluorescence ratio was 1.05.
CATGAAAACG showed a switch fluorescence ratio of 0.935.
CAGATGAAAG was tested, and the switch fluorescence ratio was 1.01.
Sequence CTTGGCAGAG has a switch fluorescence ratio of 1.
CCTGATTTAT was tested, and the switch fluorescence ratio was 1.02.
CTTGGTGGGC gave a switch fluorescence ratio of 1.03.
Work on TGATGTACAC yielded a switch fluorescence ratio of 1.
AGGAATTGAG was tested, and the switch fluorescence ratio was 1.
AAACGGCAAG gave a switch fluorescence ratio of 1.08.
Work on TATCGAATA yielded a switch fluorescence ratio of 0.963.
ACACCCCCTC showed a switch fluorescence ratio of 1.61.
With CATCCTTAAT the switch fluorescence ratio was 1.18.
For GTTATGTCTC, the switch fluorescence ratio was 1.02.
Work on TCGGAGCTGT yielded a switch fluorescence ratio of 1.57.
TGTGCGGC was tested, and the switch fluorescence ratio was 1.04.
TTAAACACGC showed a switch fluorescence ratio of 1.07.
GACCGCGTAA showed a switch fluorescence ratio of 1.39.
CCTGGGTAGT showed a switch fluorescence ratio of 1.
Work on CAAAGAAGTC yielded a switch fluorescence ratio of 0.961.
ATACCGACTG was tested, and the switch fluorescence ratio was 1.12.
For GCTGGATACC, the switch fluorescence ratio was 0.98.
CAGGTCTCGT showed a switch fluorescence ratio of 0.974.
ATAGCAACAG showed a switch fluorescence ratio of 1.17.
Work on GTTGTGTGAA yielded a switch fluorescence ratio of 0.958.
TACGGGACCA showed a switch fluorescence ratio of 1.24.
AAGTGGAGCC showed a switch fluorescence ratio of 0.932.
Sequence AACTTTGAAT has a switch fluorescence ratio of 0.983.
In the case of CATGTAAACT, the switch fluorescence ratio is reported as 1.03.
In the case of AGTTATGGTA, the switch fluorescence ratio is reported as 1.06.
In the case of GTCCTGCCCG, the switch fluorescence ratio is reported as 1.02.
Work on CACCCGTTTG yielded a switch fluorescence ratio of 1.01.
In the case of CTCGTGTTTT, the switch fluorescence ratio is reported as 0.952.
GAGGCCTGAA was tested, and the switch fluorescence ratio was 1.
CCCCTCTGTG showed a switch fluorescence ratio of 2.37.
For CTCCCGGGTC, the switch fluorescence ratio was 1.29.
TAAATTTGG gave a switch fluorescence ratio of 1.02.
TTCTTTTAAG gave a switch fluorescence ratio of 1.02.
Work on AGGTTGCAAT yielded a switch fluorescence ratio of 1.14.
In the case of AATAAGAATC, the switch fluorescence ratio is reported as 0.972.
ATAGTCTAGC showed a switch fluorescence ratio of 0.967.
GTTTGAACGA showed a switch fluorescence ratio of 0.937.
In the case of CGTAGCTACG, the switch fluorescence ratio is reported as 1.02.
In the case of TGTCCCGGGG, the switch fluorescence ratio is reported as 1.01.
GCATTCTTG was tested, and the switch fluorescence ratio was 1.01.
Sequence ATCACGAACT has a switch fluorescence ratio of 1.49.
AATATGATAC showed a switch fluorescence ratio of 1.02.
ATTTGACCAA gave a switch fluorescence ratio of 1.01.
For ATCTTACGC, the switch fluorescence ratio was 1.02.
TTGATCCAAT gave a switch fluorescence ratio of 0.994.
For AAATAGCCTT, the switch fluorescence ratio was 1.12.
Sequence ACTTATAAGT has a switch fluorescence ratio of 0.969.
Work on TATCTCTAGC yielded a switch fluorescence ratio of 0.985.
Work on CGATTACCTA yielded a switch fluorescence ratio of 1.04.
Sequence ACAGAGTCTG has a switch fluorescence ratio of 1.04.
CAGGTATACA showed a switch fluorescence ratio of 1.03.
In the case of TATTGATTTC, the switch fluorescence ratio is reported as 0.967.
Work on ATAGTGCCTA yielded a switch fluorescence ratio of 1.01.
Work on TGGACGAGTG yielded a switch fluorescence ratio of 1.01.
GGTTGACTAA showed a switch fluorescence ratio of 0.982.
CTGACGGATG was tested, and the switch fluorescence ratio was 1.02.
Sequence TATAGGCGTA has a switch fluorescence ratio of 1.04.
Work on ACATTATTCG yielded a switch fluorescence ratio of 1.05.
TCCACGAATA was tested, and the switch fluorescence ratio was 1.03.
GTTTGGTGTC showed a switch fluorescence ratio of 1.07.
GAAAAGACGT showed a switch fluorescence ratio of 0.957.
GAAAGGTTTG was tested, and the switch fluorescence ratio was 1.44.
With GTCGCACGTT the switch fluorescence ratio was 1.03.
In the case of TGGAACCCA, the switch fluorescence ratio is reported as 1.01.
CTGTACTTGC gave a switch fluorescence ratio of 1.05.
Work on CTCGCGCCTG yielded a switch fluorescence ratio of 0.978.
Sequence GGTCTGTGGG has a switch fluorescence ratio of 0.983.
In the case of ATATCAGATA, the switch fluorescence ratio is reported as 0.994.
In the case of ATGACACACA, the switch fluorescence ratio is reported as 1.35.
CGTAGCATGG gave a switch fluorescence ratio of 4.14.
Sequence TGCGCAACGA has a switch fluorescence ratio of 1.03.
For TTCGACCCGG, the switch fluorescence ratio was 0.997.
For GAGAAATAAG, the switch fluorescence ratio was 1.
With AAGAGTATGT the switch fluorescence ratio was 1.04.
CACATTTAGA showed a switch fluorescence ratio of 1.01.
For TGAGGAATGA, the switch fluorescence ratio was 1.03.
TATACTAGGC was tested, and the switch fluorescence ratio was 1.09.
Sequence CAGGCCCTGT has a switch fluorescence ratio of 0.99.
Sequence TTACTCGATT has a switch fluorescence ratio of 1.15.
In the case of CCATATTATT, the switch fluorescence ratio is reported as 0.975.
Sequence GACAATTGCA has a switch fluorescence ratio of 1.03.
Sequence AGTGGAATAA has a switch fluorescence ratio of 1.02.
Sequence AGTGTTCGAG has a switch fluorescence ratio of 0.985.
CTGGTCACGG gave a switch fluorescence ratio of 0.991.
CAGCGTTGCC was tested, and the switch fluorescence ratio was 0.912.
TGGTATTGGG gave a switch fluorescence ratio of 1.1.
Work on TTTTCTGAGA yielded a switch fluorescence ratio of 0.986.
AAAGGTCGGA showed a switch fluorescence ratio of 0.977.
In the case of GTAGTCTGTT, the switch fluorescence ratio is reported as 0.977.
TAGAATGAGT gave a switch fluorescence ratio of 1.05.
For AGAAGATGCG, the switch fluorescence ratio was 1.02.
Sequence GTTAGTGGCC has a switch fluorescence ratio of 1.02.
GCAGTTGTCA showed a switch fluorescence ratio of 0.992.
Work on AAAGCGGAGT yielded a switch fluorescence ratio of 1.04.
Work on GGGATTCGAT yielded a switch fluorescence ratio of 0.975.
With TAAATCCACT the switch fluorescence ratio was 1.09.
Work on TTCTTTGAG yielded a switch fluorescence ratio of 1.01.
ACAAAAAGAG showed a switch fluorescence ratio of 1.1.
AGCACGAGCT showed a switch fluorescence ratio of 1.05.
Sequence TGATTCCGAG has a switch fluorescence ratio of 1.14.
AGCGGAACGG showed a switch fluorescence ratio of 1.01.
CTCTTGTGTA showed a switch fluorescence ratio of 1.04.
With GTTGGAACTC the switch fluorescence ratio was 1.
For ACGGTGTATC, the switch fluorescence ratio was 1.04.
With GTATTTTTTA the switch fluorescence ratio was 1.04.
TCAGGGTGT gave a switch fluorescence ratio of 1.02.
With CAAACGGTTC the switch fluorescence ratio was 0.965.
AAGGTCTTTT showed a switch fluorescence ratio of 0.97.
With CAATGGAGTG the switch fluorescence ratio was 0.968.
Work on GGGTCGTTAA yielded a switch fluorescence ratio of 0.999.
GAGTCATCTG was tested, and the switch fluorescence ratio was 0.979.
With CCTTCGAGTG the switch fluorescence ratio was 1.27.
Sequence TTGAGTGTAA has a switch fluorescence ratio of 1.04.
Sequence TGCTAGAAGG has a switch fluorescence ratio of 0.978.
TAACTATTA was tested, and the switch fluorescence ratio was 1.02.
CGGTGCGGTA was tested, and the switch fluorescence ratio was 1.
In the case of CTTGGCTGCG, the switch fluorescence ratio is reported as 1.03.
Sequence GACCCATGGA has a switch fluorescence ratio of 1.02.
Sequence TGAATAAAGA has a switch fluorescence ratio of 1.01.
GTTTCGATAT was tested, and the switch fluorescence ratio was 1.02.
CGTAGGTCA gave a switch fluorescence ratio of 0.986.
GTAACGCTGG gave a switch fluorescence ratio of 1.03.
For TGTCGATTAC, the switch fluorescence ratio was 1.08.
With TAAGGTTATT the switch fluorescence ratio was 0.978.
GGGCGAAAGG was tested, and the switch fluorescence ratio was 1.01.
CAGCACAAAA showed a switch fluorescence ratio of 1.01.
CGTTAGGGAT showed a switch fluorescence ratio of 1.02.
TCGGGAGTTT gave a switch fluorescence ratio of 1.
Sequence GCACAAAGC has a switch fluorescence ratio of 1.09.
For CTTCTGACCT, the switch fluorescence ratio was 1.39.
For CATTTGCTA, the switch fluorescence ratio was 1.1.
CAATACATC showed a switch fluorescence ratio of 1.07.
GGTCCATAGA was tested, and the switch fluorescence ratio was 0.984.
In the case of GTTCGTAGAT, the switch fluorescence ratio is reported as 1.01.
With CTCACAACGC the switch fluorescence ratio was 1.37.
GCAGTAGATC gave a switch fluorescence ratio of 1.03.
With AATGGGATCA the switch fluorescence ratio was 0.993.
TGTTATTGAG was tested, and the switch fluorescence ratio was 0.989.
GACTTAGT showed a switch fluorescence ratio of 0.96.
Work on GGAGATGGAG yielded a switch fluorescence ratio of 1.01.
ACACTGAGTT showed a switch fluorescence ratio of 1.06.
In the case of GCAGCGAATT, the switch fluorescence ratio is reported as 1.12.
Work on ATACGTAACG yielded a switch fluorescence ratio of 1.12.
AGAGGGCCGC gave a switch fluorescence ratio of 1.04.
With GCACAAGAAG the switch fluorescence ratio was 1.05.
In the case of GCCGCCGGG, the switch fluorescence ratio is reported as 1.01.
TCTAGAGTT gave a switch fluorescence ratio of 1.04.
GGGATTTGGA showed a switch fluorescence ratio of 1.06.
In the case of TGAGATAGCA, the switch fluorescence ratio is reported as 0.963.
AAACGTTTCG was tested, and the switch fluorescence ratio was 1.07.
For GGCAGACTCT, the switch fluorescence ratio was 1.3.
Sequence ACGTAGATGG has a switch fluorescence ratio of 1.05.
CGATAAAGTG was tested, and the switch fluorescence ratio was 0.957.
For CCATGTCCGC, the switch fluorescence ratio was 1.67.
In the case of CCGTTTAGTT, the switch fluorescence ratio is reported as 1.06.
